The results in this text go back to the supplement of paper PMC8813932.

Holding throughout (experiment): log2 surviving fraction relative to plate median (drug vs vehicle, or drug+dl922-947 vs dl922-947 alone); ovarian cancer lines: OVCAR4 is platinum-sensitive while Ov4Cis resists cisplatin and Ov4Carbo carboplatin; higher = more cell survival
Settings in all cases: compound concentration: 10 uM, 192 h

Assay [1] relates to OVCAR4.
The subject of assay [2] is Ov4Carbo.
Assay [3] concerns Ov4Cis.
Where [4] appears, read: dl922-947 oncolytic adenovirus co-treatment: MOI 10.
Setting [5] is: dl922-947 oncolytic adenovirus co-treatment: none.

Counter-ions that a name gives are not always drawn. ± gives the standard deviation of the averaged measurements. Some of the results follow. Many values rest on one well or one pass, so single values are uncertain.

In the case of `CNC(=O)CN(CCN(CCN(CC(=O)O)CC(=O)NC)CC(=O)O)CC(=O)O.O.[Gd]` [Gadodiamide (Omniscan)], the log2 surviving fraction in assay [1] (setting [4]) is -0.756 ± 0.36; in assay [1] (setting [5]), -0.116 ± 0.037; in assay [2] (setting [4]) it was 0.371; in assay [2] (setting [5]), -0.314; in assay [3] (setting [4]), 0.0506; in assay [3] (setting [5]), -0.508.
Regarding `CCc1cc2c(cc1CC)CC(NC[C@H](O)c1ccc(O)c3[nH]c(=O)ccc13)C2` [Indacaterol Maleate], the log2 surviving fraction in assay [1] (setting [4]) is -1.87 ± 0.5; in assay [1] (setting [5]) it was -1.48 ± 1.2; in assay [2] (setting [4]), -1.47; in assay [2] (setting [5]), -1.05; in assay [3] (setting [4]) it was -4.79; in assay [3] (setting [5]) it was -2.29.
As for `COc1ccccc1N1CCN(CC(O)COc2cccc3ccccc23)CC1` (centres undefined) [Naftopidil (Flivas)], the log2 surviving fraction in assay [1] (setting [4]) is -0.198 ± 0.0029; in assay [1] (setting [5]), -0.727 ± 0.18; in assay [2] (setting [4]), 0.127; in assay [2] (setting [5]), -0.832; in assay [3] (setting [4]), -0.704; in assay [3] (setting [5]), -1.54.
`c1ccc2c(c1)sc1ccccc12` [Dibenzothiophene]: the log2 surviving fraction in assay [1] (setting [4]) is 0.146 ± 0.056; in assay [1] (setting [5]) it was -0.252 ± 0.61; in assay [2] (setting [4]), -0.54; in assay [2] (setting [5]), -1.13; in assay [3] (setting [4]), 0.197; in assay [3] (setting [5]) it was -0.0717.
`CCn1cc(C(=O)O)c(=O)c2cc(F)c(N3CCNC(C)C3)c(F)c21` (centres undefined) [Lomefloxacin hydrochloride (Maxaquin)]: the log2 surviving fraction in assay [1] (setting [4]) was -1.22 ± 0.33; in assay [1] (setting [5]) it was -0.534 ± 0.68; in assay [2] (setting [4]), 0.347; in assay [2] (setting [5]) it was -0.0861; in assay [3] (setting [4]), -0.751; in assay [3] (setting [5]) it was -0.465.
In the case of `CN[C@H]1CC[C@@H](c2ccc(Cl)c(Cl)c2)c2ccccc21` [Sertraline HCl], the log2 surviving fraction in assay [1] (setting [4]) is -7.2 ± 2.1; in assay [1] (setting [5]) it was -8.26 ± 2.2; in assay [2] (setting [4]), -8.17; in assay [2] (setting [5]), -9.76; in assay [3] (setting [4]), -8.75; in assay [3] (setting [5]), -13.8.
Take `Nc1ncnc2c1ncn2[C@@H]1O[C@H](COP(=O)(O)OP(=O)(O)OP(=O)(O)O)[C@@H](O)[C@H]1O` [ATP (Adenosine-Triphosphate)]: the log2 surviving fraction in assay [1] (setting [4]) was -0.118 ± 0.06; in assay [1] (setting [5]), 0.361 ± 0.9; in assay [2] (setting [4]), -0.49; in assay [2] (setting [5]), 0.139; in assay [3] (setting [4]), 0.18; in assay [3] (setting [5]), 0.599.
For `CNC(=O)c1cc(Oc2ccc(NC(=O)Nc3ccc(Cl)c(C(F)(F)F)c3)c(F)c2)ccn1` [Regorafenib (BAY 73-4506)], the log2 surviving fraction in assay [1] (setting [4]) is -0.205 ± 0.56; in assay [1] (setting [5]), -0.819 ± 2.8; in assay [2] (setting [4]), -8.72; in assay [2] (setting [5]), 0.0983; in assay [3] (setting [4]), 0.254; in assay [3] (setting [5]), -1.42.
On to `CCC1=C[C@@H]2CN(C1)Cc1c([nH]c3ccccc13)[C@@](C(=O)OC)(c1cc3c(cc1OC)N(C)[C@H]1[C@@](O)(C(=O)OC)[C@H](OC(C)=O)[C@]4(CC)C=CCN5CC[C@]31[C@@H]54)C2` [Vinorelbine (Navelbine)], for which the log2 surviving fraction in assay [1] (setting [4]) is -4.9 ± 1.1; in assay [1] (setting [5]) it was -6.56 ± 2.9; in assay [2] (setting [4]) it was -5.3; in assay [2] (setting [5]), -9.38; in assay [3] (setting [4]), -4.42; in assay [3] (setting [5]), -7.12.
For the compound `CN(C)CCOc1ccc(/C(=C(/CCCl)c2ccccc2)c2ccccc2)cc1` [Toremifene Citrate (Fareston, Acapodene)], the log2 surviving fraction in assay [1] (setting [4]) is -3.45 ± 1.9; in assay [1] (setting [5]) it was -1.97 ± 0.72; in assay [2] (setting [4]), -4.34; in assay [2] (setting [5]), -5; in assay [3] (setting [4]) it was -4.76; in assay [3] (setting [5]), -3.97.
Take `COC1=C(OC)C(=O)C(CCCCCCCCCCO)=C(C)C1=O` [Idebenone]: the log2 surviving fraction in assay [1] (setting [4]) is 0.0176 ± 0.15; in assay [1] (setting [5]), -0.606 ± 1; in assay [2] (setting [4]) it was 0.502; in assay [2] (setting [5]), -0.00142; in assay [3] (setting [4]), 0.254; in assay [3] (setting [5]), 0.598.
Regarding `CO[C@H]1/C=C/O[C@@]2(C)Oc3c(C)c(O)c4c(O)c(c5c(nc6cc(C)ccn65)c4c3C2=O)NC(=O)/C(C)=C\C=C\[C@H](C)[C@H](O)[C@@H](C)[C@@H](O)[C@@H](C)[C@H](OC(C)=O)[C@@H]1C` [Rifaximin (Xifaxan)], the log2 surviving fraction in assay [1] (setting [4]) is 1.01 ± 0.69; in assay [1] (setting [5]), -0.373 ± 0.6; in assay [2] (setting [4]), -0.124; in assay [2] (setting [5]), 0.451; in assay [3] (setting [4]), 0.299; in assay [3] (setting [5]), -0.186.
On to `C[C@@H]1C[C@H]2[C@@H]3CCC4=CC(=O)C=C[C@]4(C)[C@@]3(F)[C@@H](O)C[C@]2(C)[C@@]1(O)C(=O)CO` [Dexamethasone], for which the log2 surviving fraction in assay [1] (setting [4]) is 1.17 ± 0.14; in assay [1] (setting [5]), 0.324 ± 0.89; in assay [2] (setting [4]) it was 1.29; in assay [2] (setting [5]) it was 1.1; in assay [3] (setting [4]) it was 2.15; in assay [3] (setting [5]), -0.659.
In the case of `CC[N+](CC)(CC)CCOc1cccc(OCC[N+](CC)(CC)CC)c1OCC[N+](CC)(CC)CC` [Gallamine triethiodide (Flaxedil)], the log2 surviving fraction in assay [1] (setting [4]) was 0.196 ± 0.22; in assay [1] (setting [5]), -0.0116 ± 0.65; in assay [2] (setting [4]), 0.558; in assay [2] (setting [5]) it was 0.592; in assay [3] (setting [4]) it was 0.775; in assay [3] (setting [5]) it was 0.662.
